Test results from PMC4336329 (PLoS ONE, 2015).
About 14,000 (4.5%) of roughly 310,000 compounds showed an effect of 50% or more. The effect is printed as a negative number. The list shows a part of the results.

Target: human ether-à-go-go-related gene (hERG) potassium channel (human, UniProt Q12809)
Experiment: primary screen, population patch clamp on CHO cells stably expressing hERG
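Also: peak tail current of the secondary pulse compared with the same well before compound.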

Sequence of human ether-à-go-go-related gene (hERG) potassium channel (Q12809 whole entry, looked up): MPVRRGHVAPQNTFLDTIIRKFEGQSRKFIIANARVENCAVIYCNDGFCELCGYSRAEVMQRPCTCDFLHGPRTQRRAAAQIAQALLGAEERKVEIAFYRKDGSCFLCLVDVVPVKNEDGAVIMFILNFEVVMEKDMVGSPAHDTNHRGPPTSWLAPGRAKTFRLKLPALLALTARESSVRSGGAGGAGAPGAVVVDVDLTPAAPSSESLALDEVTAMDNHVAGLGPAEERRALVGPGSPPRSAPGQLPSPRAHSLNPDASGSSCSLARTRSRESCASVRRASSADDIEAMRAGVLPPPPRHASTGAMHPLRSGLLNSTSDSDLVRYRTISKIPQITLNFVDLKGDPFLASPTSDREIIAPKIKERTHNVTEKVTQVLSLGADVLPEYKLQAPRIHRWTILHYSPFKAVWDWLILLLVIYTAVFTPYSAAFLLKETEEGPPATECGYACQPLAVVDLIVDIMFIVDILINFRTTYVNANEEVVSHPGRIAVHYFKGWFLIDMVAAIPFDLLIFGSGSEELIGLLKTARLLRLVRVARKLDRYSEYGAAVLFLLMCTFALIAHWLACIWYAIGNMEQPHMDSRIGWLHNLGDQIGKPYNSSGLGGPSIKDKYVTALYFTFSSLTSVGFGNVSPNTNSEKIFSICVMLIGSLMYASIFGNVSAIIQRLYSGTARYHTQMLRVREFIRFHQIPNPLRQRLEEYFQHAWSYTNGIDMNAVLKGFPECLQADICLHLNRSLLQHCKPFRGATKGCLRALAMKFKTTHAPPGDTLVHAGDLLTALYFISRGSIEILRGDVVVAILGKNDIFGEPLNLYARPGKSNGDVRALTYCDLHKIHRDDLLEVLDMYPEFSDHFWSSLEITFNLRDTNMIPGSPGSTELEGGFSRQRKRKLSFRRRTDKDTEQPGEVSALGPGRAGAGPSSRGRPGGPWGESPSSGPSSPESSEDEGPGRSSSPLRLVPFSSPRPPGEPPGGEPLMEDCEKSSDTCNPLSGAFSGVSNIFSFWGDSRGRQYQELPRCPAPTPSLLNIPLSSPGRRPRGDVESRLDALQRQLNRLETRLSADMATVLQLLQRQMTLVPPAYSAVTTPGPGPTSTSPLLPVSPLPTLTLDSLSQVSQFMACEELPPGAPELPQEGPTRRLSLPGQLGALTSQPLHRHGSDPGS

Q: Cc1ccc(S(=O)(=O)NCCNC(=O)c2ccccc2)cc1 was tested. Which “hERG current change (%, negative = inhibition) at 10uM” value did it give?
A: The value was 12.4%.

Q: COc1ccc(NC(=O)CN(C)C(=O)c2ccc(C)s2)cc1 was tested. Which “hERG current change (%, negative = inhibition) at 10uM” value did it give?
A: Its value is 6.73%.

Q: For O=C(CCNC(=O)c1ccc(Br)cc1)NCc1ccco1, which “hERG current change (%, negative = inhibition) at 10uM” value is on record?
A: The value was -4.45%.

Q: With O=C1NC(=O)C(=CN2CCc3ccccc32)C(=O)N1 as the compound, how does the “hERG current change (%, negative = inhibition) at 10uM” value read?
A: The value was 15.8%.

Q: How did the “hERG current change (%, negative = inhibition) at 10uM” value turn out when COc1cc(OC)cc(C(=O)NC(=S)Nc2cc3oc4ccccc4c3cc2OC)c1 was run?
A: Its value is 18.5%.

Q: O=C(Nc1ccccc1)c1ccc(S(=O)(=O)N2CCOCC2)cc1 was tested. Which “hERG current change (%, negative = inhibition) at 10uM” value did it give?
A: Its value is 2.32%.

Q: For Cc1noc(C)c1S(=O)(=O)Nc1cc(C(F)(F)F)ccc1N1CCOCC1, which “hERG current change (%, negative = inhibition) at 10uM” value is on record?
A: Its value is 7.85%.

Q: How did the “hERG current change (%, negative = inhibition) at 10uM” value turn out when Cc1ccc(-n2c(=O)c3c(n4cnnc24)-c2ccccc2CC32CCCCC2)cc1 was run?
A: Its value is -16.6%.

Q: Which “hERG current change (%, negative = inhibition) at 10uM” value does the source give for CCN(CC)Cc1cc(NC2=NS(=O)(=O)c3ccccc32)ccc1OC(=O)C(C)C.Cl here?
A: The value was -14.6%.

Q: With COc1ccccc1C(=O)COC(=O)Cc1n[nH]c(=O)c2ccccc12 as the compound, how does the “hERG current change (%, negative = inhibition) at 10uM” value read?
A: The value was -3.78%.

Q: How did the “hERG current change (%, negative = inhibition) at 10uM” value turn out when COC(=O)c1ccc(NC(=S)NC(=O)C2CCC2)cc1 was run?
A: Its value is 22.4%.

Q: Which “hERG current change (%, negative = inhibition) at 10uM” value does the source give for CC1(C)c2[nH]c3ccccc3c2C[C@H]2C(=O)N(Cc3ccc(F)cc3)C(=O)N21 here?
A: Its value is 0.805%.

Q: Which “hERG current change (%, negative = inhibition) at 10uM” value does the source give for CCOc1ccc(S(=O)(=O)N2CCOCC2)cc1NC(=O)CSC(=S)N1CCCC1 here?
A: Its value is -63%.

Q: For O=C(Nc1ccccc1F)C1(c2ccccc2)CC1(Cl)Cl (stereo not drawn), which “hERG current change (%, negative = inhibition) at 10uM” value is on record?
A: Its value is -70%.

Q: With COc1ccc(CNS(=O)(=O)c2cc3c(cc2C)N(C)CCO3)cc1 as the compound, how does the “hERG current change (%, negative = inhibition) at 10uM” value read?
A: The value was -6.3%.

Q: O=C(O)CN1C(=O)/C(=C\c2cc(Br)ccc2OCc2ccccc2F)SC1=S was tested. Which “hERG current change (%, negative = inhibition) at 10uM” value did it give?
A: Its value is 31.2%.

Q: With O=C(NCc1ccccc1)C(=O)NCC1OCCN1S(=O)(=O)c1ccc2c(c1)OCCO2 (stereo not drawn) as the compound, how does the “hERG current change (%, negative = inhibition) at 10uM” value read?
A: Its value is -3.14%.

Q: How did the “hERG current change (%, negative = inhibition) at 10uM” value turn out when CC(=O)c1ccc(-n2c(CCC(=O)O)ccc2-c2cccs2)cc1 was run?
A: Its value is -0.766%.

Q: For CCOC(=O)C1(C)C=C(Nc2ccccc2)C(=O)N1c1ccccc1 (stereo not drawn), which “hERG current change (%, negative = inhibition) at 10uM” value is on record?
A: The value was 25.7%.

Q: Which “hERG current change (%, negative = inhibition) at 10uM” value does the source give for COc1cccc2cc(-c3ccnc(=S)[nH]3)oc12 here?
A: The value was 10.1%.

Q: With CC(C)Sc1nc(N2CCOCC2)c2c3c(sc2n1)COC(C)(C)C3 as the compound, how does the “hERG current change (%, negative = inhibition) at 10uM” value read?
A: Its value is -12%.

Q: Which “hERG current change (%, negative = inhibition) at 10uM” value does the source give for O=c1[nH]ncc(N2CCN(C(c3ccccc3)c3ccccc3)CC2)c1Cl here?
A: The value was -4.18%.

Q: N=c1c(S(=O)(=O)c2ccccc2)cc2c(=O)n3ccccc3nc2n1Cc1cccnc1 was tested. Which “hERG current change (%, negative = inhibition) at 10uM” value did it give?
A: Its value is -59.2%.

Q: With O=C(OCc1nnc(-c2ccccc2)o1)c1cc2ccccc2cc1O as the compound, how does the “hERG current change (%, negative = inhibition) at 10uM” value read?
A: Its value is 8.95%.

Q: CC(=O)Nc1c(O)nc(SCC(=O)Nc2cccc(C)c2)[nH]c1=O was tested. Which “hERG current change (%, negative = inhibition) at 10uM” value did it give?
A: Its value is 14.8%.

Q: Which “hERG current change (%, negative = inhibition) at 10uM” value does the source give for Cc1csc(=O)n1CCC(=O)OCC(=O)c1c(N)n(C)c(=O)n(C)c1=O here?
A: The value was -4.76%.

Q: For CCOc1ccc(NC2=C(OC)C(=O)c3ccccc3C2=O)cc1, which “hERG current change (%, negative = inhibition) at 10uM” value is on record?
A: Its value is -3.1%.

Q: Cc1c(NC(=O)Nc2ccccc2Cl)sc(=S)n1C was tested. Which “hERG current change (%, negative = inhibition) at 10uM” value did it give?
A: Its value is -8.82%.

Q: For O=C(COc1ccccc1)N1CCN(C(=O)c2ccccc2F)CC1, which “hERG current change (%, negative = inhibition) at 10uM” value is on record?
A: The value was 12.1%.

Q: COc1ccc(C2C(C(N)=O)=C(C)Nc3nc(CCCO)nn32)cc1 (stereo not drawn) was tested. Which “hERG current change (%, negative = inhibition) at 10uM” value did it give?
A: The value was 17.8%.

Q: Which “hERG current change (%, negative = inhibition) at 10uM” value does the source give for CC(C)=CC(=O)OCc1cc([N+](=O)[O-])cc2c1OCOC2 here?
A: The value was 8.69%.

Q: O=C(c1ccc(N2CCCCC2)c([N+](=O)[O-])c1)N1CCN(c2ccccn2)CC1 was tested. Which “hERG current change (%, negative = inhibition) at 10uM” value did it give?
A: Its value is -66.8%.

Q: With O=C(/C=C/c1cn(CC(O)CN2CCCCCC2)c2ccccc12)c1cccs1 (stereo not drawn) as the compound, how does the “hERG current change (%, negative = inhibition) at 10uM” value read?
A: Its value is -75.2%.

Q: With COc1ccc(C(=O)N[C@H](C(=O)Nc2nc3ccccc3[nH]2)C(C)C)cc1 as the compound, how does the “hERG current change (%, negative = inhibition) at 10uM” value read?
A: Its value is 22.2%.

Q: How did the “hERG current change (%, negative = inhibition) at 10uM” value turn out when O=[N+]([O-])c1ccc(-c2ccc(/C=N/n3cnnc3)o2)c(Br)c1 was run?
A: Its value is -12.9%.

Q: How did the “hERG current change (%, negative = inhibition) at 10uM” value turn out when COc1ccc(NC(=O)Nc2ccccc2F)cc1 was run?
A: Its value is 11.5%.

Q: With COc1cccc(/C=N/Nc2nc(-c3cccnc3)nc3ccccc23)c1 as the compound, how does the “hERG current change (%, negative = inhibition) at 10uM” value read?
A: Its value is 2%.

Q: COC(=O)c1cc(C(=O)Nc2nnc(C3CC3)s2)cc([N+](=O)[O-])c1 was tested. Which “hERG current change (%, negative = inhibition) at 10uM” value did it give?
A: Its value is 16.7%.

Q: Which “hERG current change (%, negative = inhibition) at 10uM” value does the source give for N/C(=N\O)c1ccc(N2CCN(c3ncccc3C(F)(F)F)CC2)nc1 here?
A: Its value is -16.7%.

Q: How did the “hERG current change (%, negative = inhibition) at 10uM” value turn out when O=C1NC(=S)NC(=O)C1C1CCCCC1 was run?
A: The value was 1.49%.

Q: Which “hERG current change (%, negative = inhibition) at 10uM” value does the source give for NS(=O)(=O)c1ccc(NC(=O)c2cccc(Cl)c2)cc1 here?
A: The value was -2.72%.

Q: COc1cccc(C(=O)Oc2ccc(N3C(=O)CCC3=O)c(C)c2)c1 was tested. Which “hERG current change (%, negative = inhibition) at 10uM” value did it give?
A: Its value is 27.9%.

Q: Which “hERG current change (%, negative = inhibition) at 10uM” value does the source give for COc1ccc(CNC(=O)CN(C(=O)c2snc(C(N)=O)c2N)c2ccccc2F)cc1 here?
A: Its value is -8.74%.

Q: How did the “hERG current change (%, negative = inhibition) at 10uM” value turn out when COc1cc(NC(=O)CCc2ccccc2)c(C(=O)O)cc1OC was run?
A: The value was -8.88%.

Q: How did the “hERG current change (%, negative = inhibition) at 10uM” value turn out when O=S(=O)(Nc1nc2ccccc2nc1NCC1CCCO1)c1cccs1 (stereo not drawn) was run?
A: Its value is 0.629%.
